# Reference: PMC12040169 (PLOS Biology, 2025)
# The list shows a part of the results.
# System: T1, C. trachomatis L2/434/Bu expressing GFP (CTL2-GFP)
# T1 construct: L2/434/Bu GFP intracellular growth in HeLa cells
# Design: species or system HeLa; C. trachomatis total inclusion area by high-content imaging, normalised to DMSO
# Conditions: total inclusion area; 28.5 h, 10 µM; inhibitor
# Procedure, shortened: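 Bulk GFP and resorufin signals were read first. Wells were then fixed, stained with Hoechst and imaged to detect GFP inclusions and host nuclei. MICs followed the previously described calculation.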
row,SMILES,% of control remaining
1,COc1ccc(/C=C(\C)C(=O)NCc2ccccc2OC2CCNC2)cc1OC (centres unmarked) [CBK034157T],85.1752
2,N#C/C(=C\c1cn(-c2ccccc2)nc1-c1cccc(S(=O)(=O)N2CCCC2)c1)c1nc2ccccc2c(=O)[nH]1 [CBK266296],118.098
3,O=S(=O)(NCCc1cccc(C(F)(F)F)c1)c1cccs1 [CBK044068],100.598
4,Cc1ccc([N+](=O)[O-])cc1NC(=O)CSc1nnc(Cc2ccccc2)o1 [CBK265889],83.3399
5,CCOC(=O)c1sc(NS(=O)(=O)Cc2ccccc2[N+](=O)[O-])nc1C [CBK047458],98.724
6,Cc1cccc(NC(=O)c2cnc3n(c2=O)CCS3)c1 [CBK287375],101.913
7,O=C(NC(c1ccccc1)c1ccccc1)N1CCN(Cc2ccccc2)CC1 [CBK155630],79.1199
8,c1ccc(CCNC2CCCc3c2[nH]c2ccc(C4CCCCC4)cc32)cc1 (centres unmarked) [CBK261602C],103.919
9,COc1ccc(N2CCN(Cc3nc4c(c(=O)n(C)c(=O)n4C)n3CC(C)=O)CC2)cc1 [CBK269465],84.068
10,Cc1cnc(CNS(=O)(=O)c2cnn(-c3ccccc3)c2C)cn1 [CBK062335],85.0097
11,CCn1c2ccccc2c2cc(CN3CCN(Cc4cc(OC)cc(OC)c4)CC3)ccc21 [CBK263164],82.9743
12,CCC(C(=O)O)N1C(=O)C(=Cc2ccc(-c3ccccc3C(F)(F)F)o2)SC1=S (centres unmarked) [CBK296985],83.5269
13,COc1ccc2c(c1)C(=O)CC1(CCN(C(=O)/C=C/c3ccc(C)cc3)CC1)O2 [CBK156438],111.716
14,COc1ccc(OCCN2CCC(C(=O)NC(c3ccccn3)c3ccccc3OC)CC2)cc1 (centres unmarked) [CBK147938],85.9628
15,COc1ccc(C(NC(=O)Cc2ccc(-n3nnnc3C)cc2)c2ccccc2)cc1 (centres unmarked) [CBK285537],112.934
16,C[C@@H]1C[C@H](C(F)(F)F)n2nc(C3CCCN3C(=O)C3CC3)cc2N1 (some centres unmarked) [CBK285432],84.987
17,C#CCNC(=O)C1CCN(c2nc3ccccc3n2CC)CC1 [CBK283923],87.932
18,O=C(NC1CC1)[C@@H]1C=CCN1S(=O)(=O)c1ccc(F)cc1 [CBK284294],66.1658
19,Cc1cccc(/N=C2\NC(=O)C(Cc3ccc(C)c(Cl)c3)S2)n1 (centres unmarked) [CBK265597],115.2
20,CCCCN1CC(C(=O)Nc2nccs2)CC1=O (centres unmarked) [CBK288224],100.354
21,CCNC(=O)Nc1cc2ccccc2c(-c2ccc(F)cc2OC)n1 [CBK085731],58.8919
22,CSc1nc(-n2nc(C)cc2C)c2c3c(sc2n1)COC(C)(C)C3 [CBK268906],97.2281
23,O=C(O)CSc1cccc([N+](=O)[O-])c1 [CBK110160],72.944
24,Cc1cc(Cl)ccc1OCCCc1nnc(S)n1C [CBK288396],59.9215
25,Cc1cccc(C2(O)CCN(C(=O)c3ccc4nc(C)[nH]c4c3)CC2)c1 [CBK283299],117.026

row,SMILES,% of control remaining
1,COc1cccc(CN2CCC3(C/C=C/COc4ccccc4C(=O)NCCNC3=O)CC2)c1F [CBK292025],112.574
2,CCN1CCc2nc(NC(=O)Cc3cn4ccsc4n3)sc2C1 [CBK304534],54.1125
3,Brc1cn2ccnc2c(NCc2ccccn2)n1 [CBK038024],111.714
4,Cc1nc(C)n(C(C)CNC(=O)Cn2ccc3ccc(F)cc32)n1 (centres unmarked) [CBK282612],114.898
5,Cc1ccccc1-c1ccccc1CC1(C(N)=O)CCN(C(=O)c2ccccc2)CC1 [CBK285721],112.844
6,O=C1CCCN1CCOc1nccnc1-c1cc2ccccc2s1 [CBK106780],105.343
7,O=[N+]([O-])c1ccccc1S(=O)(=O)N1CCN(C2CCCCCC2)CC1 [CBK264171G],128.476
8,Cc1cc2cc(C(=O)NCCCN3Cc4ccccc4C3)ccc2o1 [CBK282624],114.513
9,CCc1nc2ccc(C(=O)NCc3ccc4c(c3)OCO4)cn2c1N(CCN(C)C)CC1CC1 [CBK145472],138.269
10,CSc1nnc2n3ncnc3c3c4c(sc3n12)CCCC4C (centres unmarked) [CBK288542],82.9987
11,CS(=O)(=O)c1ccc(-n2nnnc2CN2CCC3(CCCCC3)C2)cc1 [CBK306183],40.6109
12,Cc1cc(C)nc(SCC(=O)Nc2ccc(C(=O)O)cc2)n1 [CBK263223],63.3883
13,O=C(NC(=S)Nc1ccc(-c2nc3ccccc3o2)c(O)c1)c1cncc(Br)c1 [CBK264931],98.3368
14,COc1cnn(-c2ccccc2)c(=O)c1N(C)C [CBK020317],72.6064
15,O=C(CSc1nnc(-c2cccnc2)o1)Nc1ccccc1 [CBK287742],71.4171
16,CS(=O)(=O)c1ccc(Cn2ccnc(OC3CCN(C(=O)c4ccc(C#N)cc4)CC3)c2=O)cc1 [CBK161804],91.8297
17,Cc1nn(C)cc1C(C)NC(=O)c1cn2cccc(C)c2n1 (centres unmarked) [CBK281731],128.734
18,COc1ccc(-c2ccnc(N[C@H]3CO[C@H]4[C@@H]3OC[C@@H]4NC(=O)c3ccccc3)n2)cc1 [CBK289526],109.359
19,CC(=O)Nc1ccc(S(N)(=O)=O)cc1Cl [CBK028784],88.9813
20,CSC(C)CCN1CCn2nc(CNc3cnccn3)cc2C1 (centres unmarked) [CBK307376],46.6872
21,CCc1cc(=O)[nH]c(-c2ccc(N(C)CC(C)O)nc2)n1 (centres unmarked) [CBK306484],55.7722
22,O=C(Nc1ccc(I)cc1C(=O)NCCN1CCOCC1)c1ccco1 [CBK266211],94.0657
23,CN1CCN(C(=S)Nc2ccc(S(N)(=O)=O)cc2)CC1 [CBK265223],97.5631
24,CCc1nnc(NS(=O)(=O)c2ccc(OC(F)(F)F)cc2)s1 [CBK026672],84.9442
25,Cc1c(Br)c(C(F)(F)F)nn1CC(=O)Nc1cc(C(F)(F)F)ccc1Cl [CBK087518],82.7824
